# Some of the results follow. These are noisy estimates, calculated here from bound and input reads.
# Target: T1, Pho4 (S. cerevisiae) (UniProt P07270)
# T1 sequence: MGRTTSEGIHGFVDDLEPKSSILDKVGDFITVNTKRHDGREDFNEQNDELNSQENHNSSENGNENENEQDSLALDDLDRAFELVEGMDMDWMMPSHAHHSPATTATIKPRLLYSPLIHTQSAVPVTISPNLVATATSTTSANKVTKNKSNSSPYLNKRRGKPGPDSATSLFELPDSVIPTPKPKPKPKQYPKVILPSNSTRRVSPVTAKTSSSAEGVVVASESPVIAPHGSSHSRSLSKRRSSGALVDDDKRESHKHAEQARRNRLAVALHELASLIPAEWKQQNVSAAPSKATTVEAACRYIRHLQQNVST
# Test: relative binding free energy (BET-seq); higher = weaker binding
# Conditions: reference: library average
row,Sequence,relative binding free energy [kcal/mol]
1,TATGTCACGTGTTATG,0.04
2,TCTGGCACGTGAGGAG,0.1
3,ATTGACACGTGGATCG,0.09
4,TGTTACACGTGGCATG,0
5,ACGTGCACGTGTGTTA,0.06
6,AGCTGCACGTGTTGTT,-0.18
7,GAGGGCACGTGGTTGA,-0.1
8,CGGTTCACGTGTGATT,0.31
9,CTAGGCACGTGTGGCA,-0.07
10,TTATCCACGTGCGGGT,-0.1
11,TAGTGCACGTGCGCGT,-0.12
12,TTAGGCACGTGCAAGT,0.04
13,GACGTCACGTGTGGGA,0.27
14,GTCTGCACGTGTGATG,0.1
15,GGATGCACGTGTAGGC,-0.13
16,TAACACACGTGTGTTA,0.15
17,GATTGCACGTGTGTTC,0.18
18,TAGTGCACGTGAAAGT,0.19
19,ATTGTCACGTGGGTGT,-0.07
20,AGGGGCACGTGCGTTA,-0.17
21,GTACTCACGTGGTTCG,0.28
22,AGTTACACGTGGTGCT,0.09
23,GGGTCCACGTGAGTGT,0.41
24,TATTGCACGTGTTAGA,0
25,TCAAGCACGTGGTTGG,-0.08

row,Sequence,relative binding free energy [kcal/mol]
1,TACATCACGTGAGGGT,0.38
2,TATAGCACGTGTCGTG,-0.15
3,CGGTGCACGTGAAAGG,0.22
4,GGATTCACGTGGGGAA,0.34
5,ATGGGCACGTGCATAT,-0.27
6,TGTATCACGTGGGATA,0.07
7,GTGCGCACGTGTGAGG,-0.04
8,TTAAGCACGTGGCGTG,-0.25
9,CTGTGCACGTGCTGGA,-0.09
10,TACTTCACGTGTTGGG,0.36
11,GGGCGCACGTGGGAGT,-0.29
12,GTCGACACGTGGGGGT,-0.04
13,GTTACCACGTGGTAGG,-0.23
14,TGAAGCACGTGGAGGC,-0.05
15,ATTATCACGTGTTAGA,0.13
16,AGTCTCACGTGAAGGG,0.27
17,TGATGCACGTGTTTAT,0.02
18,TGAGTCACGTGAATAG,0.42
19,AGGTTCACGTGGGACG,0.19
20,GAAGGCACGTGAGATG,0.12
21,TCTTACACGTGTCGGT,0.09
22,TGGGGCACGTGTATGG,-0.17
23,GTGCTCACGTGAGGAG,0.28
24,ATATTCACGTGGGTAT,0.16
25,CATTACACGTGTATTA,0.24

row,Sequence,relative binding free energy [kcal/mol]
1,GGGTTCACGTGTGATA,0.43
2,TGTCACACGTGAGGCG,0.36
3,TGATGCACGTGGCTAG,-0.02
4,TCGCGCACGTGGTGGG,-0.14
5,TTTTCCACGTGTAATT,0.27
6,TTTGTCACGTGAAGGC,0.2
7,GGATGCACGTGGTCTA,-0.07
8,GAGAGCACGTGAAGGC,0.34
9,GGAATCACGTGGTCGG,0.15
10,GATAACACGTGTGGTT,0.08
11,TTTGACACGTGTATGG,0.06
12,GGCTGCACGTGTTGTT,-0.07
13,TGTCTCACGTGGATAT,0.14
14,TCTAGCACGTGTCTGT,-0.06
15,CTTTTCACGTGACGTG,0.21
16,TAATGCACGTGTTAGG,-0.01
17,GTGAGCACGTGTGGAT,-0.1
18,GTCGGCACGTGAGTCG,0.11
19,CTGCGCACGTGAAGGT,0.14
20,GCGTGCACGTGGGAGT,-0.11
21,GTGAACACGTGGTAGT,-0.08
22,TTGTTCACGTGAGTCA,0.38
23,TGGGTCACGTGCTGAT,0.02
24,GCTTTCACGTGCGGTT,0.4
25,GAATGCACGTGAGTAG,0.31

row,Sequence,relative binding free energy [kcal/mol]
1,TTAATCACGTGTATTG,0.02
2,GTGACCACGTGGCGTG,-0.12
3,TGAGCCACGTGGTGGA,-0.17
4,TTCGACACGTGTTGAG,0.07
5,GTATACACGTGTATTG,-0.01
6,TGTAACACGTGCTGTG,-0.09
7,TTACTCACGTGTAGTT,0.16
8,AGGGGCACGTGGGTGT,-0.27
9,GTTGCCACGTGATAGT,0.03
10,ATGTACACGTGGCGTT,-0.04
11,AGAAGCACGTGGTTTT,-0.03
12,TGGTTCACGTGCGGTC,0.18
13,CGTTACACGTGAGTGC,0.33
14,ATGGTCACGTGGGTGT,0.04
15,TTAGGCACGTGTAAGT,0.12
16,TGTATCACGTGTTCTA,0.22
17,TCAGACACGTGGTGCT,0.17
18,GATGCCACGTGGTGTG,-0.04
19,TCCTTCACGTGTTTGG,0.34
20,CGGTGCACGTGTTCAG,-0.04
21,CTATGCACGTGCGTGG,-0.16
22,GGGCCCACGTGGTGAG,-0.13
23,GGGTTCACGTGGGTGG,0.34
24,CTGTTCACGTGGTTGC,0.3
25,AACGGCACGTGGGCGG,-0.27

row,Sequence,relative binding free energy [kcal/mol]
1,TGTAACACGTGGACGG,0.05
2,GTCTGCACGTGTGGTC,0.25
3,ATTCTCACGTGGAAGG,0.28
4,ATGCGCACGTGGTTTA,-0.15
5,GCAGACACGTGTGTGT,0.05
6,GTTGCCACGTGGGAAG,-0.1
7,GTTGTCACGTGCCGGG,-0.01
8,ACTATCACGTGGTTGG,0.15
9,GTGTTCACGTGGTCTA,0.16
10,TAGTTCACGTGGAGGT,0.21
11,TGGTACACGTGATTTT,0.25
12,TGATTCACGTGGGTTT,0.2
13,TATGGCACGTGCGTCT,-0.26
14,GAATTCACGTGTCGTT,0.27
15,GTTATCACGTGAATGT,0.4
16,TCATGCACGTGTGCGT,0.09
17,TGGAACACGTGGTGTC,0.01
18,TTTCTCACGTGGTTTG,0.14
19,GTTTTCACGTGTGATC,0.53
20,TTAAGCACGTGCGGGC,-0.11
21,GTGCTCACGTGGAATG,0.34
22,ATTGCCACGTGCTGTT,-0.14
23,TGCGACACGTGTCTGG,-0.06
24,GTTGGCACGTGGTGTT,-0.06
25,AATTTCACGTGATGTG,0.35

row,Sequence,relative binding free energy [kcal/mol]
1,TGGTCCACGTGTGCTG,-0.1
2,CGGTGCACGTGGTGGC,-0.11
3,TATGTCACGTGCGTAT,0.05
4,GATTGCACGTGTTGGG,0.11
5,GGGGTCACGTGATAGC,0.27
6,GTATGCACGTGATAGG,0.24
7,CGTTTCACGTGTGAGG,0.29
8,TGTAACACGTGGGGAT,-0.08
9,GTGTTCACGTGTATTT,0.24
10,TGTCTCACGTGGGAGG,0.2
11,GGTTTCACGTGTCATG,0.3
12,CTGGCCACGTGTTGCG,0.09
13,TAGATCACGTGAGGGG,0.41
14,GTCAGCACGTGGTTAT,0.04
15,TGGGGCACGTGGAGGA,-0.06
16,GCGTTCACGTGTCGTG,0.28
17,TGGCGCACGTGGAATG,0.04
18,CTGTGCACGTGGATAT,-0.05
19,TATTACACGTGATATT,0.12
20,CGTGGCACGTGGACGG,0.02
21,CGGGGCACGTGTGCTT,-0.15

# Source: the BET-seq Pho4 binding data (Le et al. 2018)
